# Screen size: about 48,000 compounds; about 450 (0.94%) were called active. Not shown: some 19% with an inconclusive outcome. Calls come from the whole dose curve; as a rule, active = well fitted inhibition curve with a large enough effect; inconclusive = small, poorly fitted or top-dose-only effect; inactive = no such curve, though single readings can be large or run the other way. This is one part of the list.
# Experiment: Primary qHTS for Identification of Small Molecule Inhibitors of Huntingtin Promoter Activity; note: nearly all actives have a fitted effect of over 50% in size
# Conditions: HEK293 HTT promoter firefly luciferase reporter (activity 0% = vehicle and -100% = no light), 24 h; series mostly up to 57.5 µM; activity change, negative = inhibition: at the top concentration
# Procedure, shortened: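 Firefly luciferase signal from promoter-reporter HEK293 cells was scaled between vehicle (0%) and zero RLU (-100%). Compounds were tested at final concentrations of up to 57.5 uM over 24 h at 37 degrees C. PTC124 at 50 uM final served as control inhibitor.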
row,SMILES,"activity change, negative = inhibition"
1,CC1CCC(NC(=O)c2ccc(CS(=O)(=O)c3c(Cl)cccc3Cl)o2)CC1 (stereo not drawn),inactive: -28.7%
2,COc1ccc(OCC(=O)Nc2ccccc2C(=O)OCc2cc(=O)n3nc(C)sc3n2)cc1,inactive: -8.82%
3,O=C(NCCN1CCCCC1)c1ccc(Cn2c(SCc3cccc(F)c3)nc3cccnc32)cc1,inactive: -8.35%
4,COC(=O)c1ccc(CSc2nc3c(c(=O)[nH]2)CCC3)cc1,inactive: -7.06%
5,CCc1ccccc1NC(=O)Cn1c(=O)n(Cc2ccco2)c(=O)c2sc3ccccc3c21,inactive: -13.2%
6,Cc1ccc(NC(=O)Cn2c(=O)n(Cc3ccc4c(c3)OCO4)c(=O)c3ccccc32)c(C)c1,inactive: -5.29%
7,Cc1ccc(C)c(N2CCN(S(=O)(=O)c3cnc(N)nc3)CC2)c1,inactive: -15.7%
8,Cc1ccc2nc(N3CCN(c4cccc(C)c4C)CC3)c3nncn3c2c1,inactive: -9.97%
9,CC(C)CCn1c(=O)c2sccc2n2c(CCCC(=O)NC3CCC(C)CC3)nnc12 (stereo not drawn),inactive: -17.9%
10,COc1ccc(CCNC(=O)CCSCc2ccccc2Cl)cc1OC,inactive: -4.24%
11,O=C(NCCS(=O)(=O)N1CCN(c2ccc(F)cc2)CC1)C1CC(=O)N(c2ccc(F)cc2)C1 (stereo not drawn),inactive: -5.01%
12,CC(C)c1ccc2oc(-c3ccc(NC(=O)c4cc5ccccc5o4)cc3)nc2c1,inactive: -28.2%
13,Cc1cc(C)n(-c2nc3cc(Cl)ccc3nc2Nc2ccc(CC(=O)O)cc2)n1,inactive: 1.82%
14,COc1ccc2nc(NC(=O)c3nc(SCc4ccccc4F)ncc3Cl)sc2c1,inactive: -9.85%
15,COc1ccccc1CNC(=O)C1CCN(S(=O)(=O)c2ccc3c(ccn3C)c2)CC1,inactive: -17.5%
16,COC(=O)c1c(-c2cccs2)csc1NC(=O)c1ccc(OC)c(OC)c1,inactive: 1.02%
17,CCNC(=O)C1CCN(c2nnc(C)c3c(C)n(-c4ccc(OC)cc4)nc23)CC1,inactive: -2.31%
18,Cc1ccc2c(c1)NC(=O)c1cccnc1O2,inactive: -15.7%
19,Cc1ccc(-c2nc(CS(=O)(=O)CC(=O)NCCc3ccccc3)c(C)o2)cc1,inactive: -2.68%
20,COc1ccc(CNC(=O)Cn2nc(N3CCN(c4ccccc4)CC3)ccc2=O)c(OC)c1,inactive: 4.18%
21,CC1=C(C(=O)Nc2ccccc2)C(c2ccncc2)n2nc(SCc3ccccc3F)nc2N1 (stereo not drawn),inactive: -6.72%
22,O=C(Nc1ccc(OCc2cc(=O)n3ccccc3n2)cc1)c1ccccc1Cl,inactive: 18%
23,Cc1cccc(OCC(O)Cn2c(=N)n(CCN3CCCCC3)c3ccccc32)c1 (stereo not drawn),inactive: -26.3%
24,CCn1cc(C(=O)NCc2ccc(C)cc2)c(=O)c2cc(S(=O)(=O)N(C)C3CCCCC3)ccc21,inactive: -0.951%
25,CCc1ccc(CN(Cc2ccco2)C(=O)COc2ccc(Cl)c(C)c2)cc1,inactive: -27.9%

row,SMILES,"activity change, negative = inhibition"
1,CCC(C)NC(=O)CSc1nc2c(sc3ccccc32)c(=O)n1CCc1ccc(OC)c(OC)c1 (stereo not drawn),inactive: -4.56%
2,O=C(O)CNC(=O)c1ccccc1I,inactive: 1.47%
3,CCN1CCN(C(=O)Cn2c(-c3cccs3)cc3ccccc32)CC1,inactive: -6.83%
4,COc1nc(-c2ccccc2)ccc1-c1noc(-c2ccccc2Br)n1,inactive: 10.2%
5,COC(=O)c1cccc(NC(=O)c2nsc3ccccc23)c1,inactive: -34.1%
6,COc1ccc(CCNC(=O)c2ccc3c(c2)N(Cc2ccccc2F)C(=O)c2ccccc2S3=O)cc1OC (stereo not drawn),inactive: 6.84%
7,CCOc1ccccc1CNC(=O)CCc1c(C)nn(-c2ccc(N3CCOCC3)nn2)c1C,inactive: -28.9%
8,COc1ccc(N2CCN(S(=O)(=O)CCNC(=O)COc3ccccc3F)CC2)cc1,inactive: -21.4%
9,CCOC(=O)CSc1nc(-c2ccc(Cl)cc2)cc(C(F)(F)F)c1C#N,inactive: -9.94%
10,Cc1ccc(C(=O)Oc2c(S(=O)(=O)c3ccccc3)c(C)nn2-c2ccccc2)cc1,inactive: -25.9%
11,Cc1ccc(NC(=O)CCNS(=O)(=O)c2cccc3nonc23)cc1Cl,inactive: -21.2%
12,Cc1cn2c(=O)cc(COC(=O)c3cccc(NC(=O)COc4ccccc4C)c3)nc2s1,inactive: -17.5%
13,Cc1ccc(Cc2nc3ccccc3nc2SCC(=O)N2CCCc3ccccc32)cc1,inactive: -1.77%
14,Cc1ccccc1N1C(=O)c2cc(S(N)(=O)=O)c(Cl)cc2NC1C (stereo not drawn),inactive
15,Cc1c(-c2nc(-c3ccccc3F)no2)nnn1-c1cc(F)ccc1F,inactive: -53.7%
16,CCCNC(=O)C(C)n1nc(C)c2c(C)n(-c3ccccc3)nc2c1=O (stereo not drawn),inactive: -4.92%
17,Cc1ccc(CNC(=O)CSc2c3c(nc4cc(Cl)ccc24)CCCC3)cc1,inactive: 0.982%
18,O=c1oc2cc(O)ccc2cc1-c1nnc(Nc2ccccc2F)s1,inactive: 95.9%
19,CC[C@H](NC(C)C)[C@H](O)c1ccc(O)c2[nH]c(=O)ccc12,inactive
20,CCOc1ccccc1NC(=O)Cn1c(=O)n(Cc2ccco2)c(=O)c2ccc(C(=O)NC3CCCC3)cc21,inactive: -10.6%
21,COc1ccc(Cl)cc1NC(=O)Cn1nc(Cc2ccncc2)c2ccccc2c1=O,inactive: -11.9%
22,COc1ccccc1NC(=O)N1CCC(CN2CCc3ccccc3C2)CC1,inactive: -9.23%
23,Cc1cc(F)ccc1NC1(c2ccccc2)C(=O)c2ccccc2C1=O,inactive: -10.5%
24,Cc1ccc(OC(=O)CSc2nnc(-c3cccs3)o2)cc1C,inactive: -1.87%
25,CCn1cc(C(=O)NCCc2ccc(OC)c(OC)c2)c(=O)c2cc(S(=O)(=O)N3CCC(C)CC3)ccc21,inactive: -4.04%

row,SMILES,"activity change, negative = inhibition"
1,CC(C)COC(=O)c1ccc(N)cc1,inactive: 31.3%
2,CCOc1ccc(N(CC(=O)Nc2ccccc2CC)S(=O)(=O)c2c(C)[nH]c(=O)[nH]c2=O)cc1,inactive: -12.6%
3,Cc1ccc(NC(=O)c2sc3nc[nH]c(=O)c3c2C)cc1Cl,inactive: 53.1%
4,Cc1ccc(NC(=O)Cn2c(=O)oc3ccccc32)cc1C,inactive: -18.2%
5,COC(=O)c1c(NC(=O)c2cc(OC)c(OC)c(OC)c2Br)sc2c1CCC(C)C2 (stereo not drawn),inactive: 22.3%
6,COc1ccc(CNC(=O)CCn2nc(C)c3c(C)n(-c4ccccc4)nc3c2=O)c(OC)c1,inactive: 11.2%
7,CNC(=O)Cn1c(=O)c2cccn2c2ccc(F)cc21,inactive: 7.42%
8,O=C(CCNS(=O)(=O)c1cccc2nsnc12)NCc1ccccc1,inactive: -3.75%
9,CC(C)CNc1ncnc2c1nnn2C,inactive: -8.33%
10,COc1ccc(CNC(=O)c2ccc3nc(CCc4ccccc4)oc3c2)c(OC)c1,inactive: -17.6%
11,COc1ccc(OC)c(C2C(C(=O)N3CCCCC3)=C(C)Nc3nc4ccccc4n32)c1 (stereo not drawn),inactive: -6.08%
12,CC(C)(C)c1ccc(CN(Cc2ccco2)c2cnc(S(C)(=O)=O)nc2C(=O)Nc2ccc(F)cc2)cc1,inactive: -29.9%
13,Cc1cc(C)c(NC(=O)Cn2c(=O)nc(-c3ccccc3)c3cc(Cl)ccc32)c(C)c1,inactive: -10.6%
14,Cc1cc(=O)n(Cc2cccc(F)c2)c2c1c(C)nn2-c1cccc(F)c1,inactive: -3.46%
15,CCc1cccc(CC)c1-n1nnc2c(sc3nc(C)cc(C)c32)c1=O,inactive: 6.95%
16,Cc1ccccc1CN1c2ccccc2-c2nc(SCC(N)=O)ncc2S1(=O)=O,inactive: -15%
17,CCc1ccc(-c2nn(CC(=O)Nc3ccccc3C)c3c2cnc2ccc(C)cc23)cc1,inactive: -16.1%
18,Clc1ccc(OCc2nc3ccccc3n2Cc2ccccc2)c(Cl)c1,inactive: 9.36%
19,Cc1ccc(C)c(NC(=O)c2nn(C)c3c2CS(=O)(=O)c2ccccc2-3)c1,inactive: -12.7%
20,CC(C)(C)C1CCc2c(sc3nnn(CCOc4ccccc4)c(=O)c23)C1 (stereo not drawn),inactive: 9.39%
21,COc1cc(/C=C/c2nc(C#N)c(NCCc3ccccc3)o2)cc(OC)c1OC,inactive: -11.5%
22,COc1cc(NC(=O)c2nc3ccccc3nc2N2CCCCC2)cc(OC)c1OC,inactive: 12.7%
23,Cc1ccc(CNC(=O)c2ccc(-c3nc(CS(=O)c4ccccc4)c(C)o3)cc2)cc1 (stereo not drawn),inactive: -11.8%
24,Cc1ccc(-c2nn(CC(=O)NC3CCCC3)c3c2cnc2ccccc23)cc1,inactive: 5.33%
25,Cc1ccc(C)c(NC(=O)CN2C(=O)c3cccnc3Oc3ccc(C)cc32)c1,inactive: -3.67%

row,SMILES,"activity change, negative = inhibition"
1,COCCn1ccc2c(OCC(=O)Nc3ccccc3F)cccc2c1=O,inactive: 0%
2,O=C1N(c2ccccc2)c2ccccc2C1(Cc1ccncc1)Cc1ccncc1,inactive
3,CCOC(=O)N1CCc2c(sc3c2c(=O)n(CCc2ccccc2)c(=O)n3CC(=O)Nc2cccc(C)c2)C1,inactive: -5.25%
4,CCC(=O)Nc1ccc(CC)cc1-c1nc2ccccc2n(CC(=O)Nc2cccc(OC)c2)c1=O,inactive: -8.74%
5,CCOC(=O)c1cc2c(=O)n3ccccc3nc2n(CC(C)C)c1=NC(=O)COc1ccc(Cl)cc1,inactive: -1.51%
6,COc1ccc(C(=O)Nc2ccc3nc4c(c(Nc5ccc(OC)c(OC)c5)c3c2)CCCC4)c(OC)c1,inactive: -6.17%
7,COc1ccc(-c2nc(CS(=O)CC(=O)NCCc3ccccc3)c(C)o2)cc1OC (stereo not drawn),inactive: 4.42%
8,COc1ccc(OC)c(NC(=O)CCCc2nnc3n(C(C)C)c(=O)c4sccc4n23)c1,inactive: -10.1%
9,Cc1ccc(Cl)cc1-n1nnc(-c2nsc(NC(=O)c3ccccc3Cl)n2)c1C,inactive: -29%
10,Cc1ccc2oc(C(=O)Nc3ccc(S(=O)(=O)N4CCCC(C)C4)cc3)cc(=O)c2c1 (stereo not drawn),inactive: -5.33%
11,CCc1ccc(-n2c(=O)c3ccccc3n(CC(=O)NCCc3ccc(OC)c(OC)c3)c2=O)cc1,inactive: -13.7%
12,COc1ccc(Cl)cc1NC(=O)NCCn1c(=O)oc2ccc(C)cc21,inactive: -21.1%
13,COc1ccc(C)cc1NC(=O)N1CCC(CN2CCOCC2)CC1,inactive: -22%
14,Cn1cc(S(C)=O)c(=O)c2ccc(F)cc21 (stereo not drawn),inactive: -0.484%
15,Cc1ccc2cc3cc(C(=O)N4CCN(c5ccc(Cl)cc5)CC4)oc3nc2c1,inactive: -1.97%
16,COc1ccc(-c2cn3nc(N4CCC(C(=O)Nc5ccccc5OC)CC4)sc3n2)cc1,inactive: 3.49%
17,CCN(CC)C(=O)c1sc2c(c1C)c(=O)n(-c1ccccc1)c(=O)n2Cc1c(C)cc(C)cc1C,inactive: -0.709%
18,CC(C)C(NS(=O)(=O)c1ccc2c(c1)oc(=O)n2C)C(=O)N1CCN(c2cccc(Cl)c2)CC1 (stereo not drawn),inactive: -29.8%
19,CCN(CC)C(=O)c1ccc2c(c1)N(Cc1c(F)cccc1Cl)C(=O)c1ccccc1S2,inactive: -27.5%
20,COc1ccc(N2CC(NC(=O)c3cccs3)CC2=O)cc1 (stereo not drawn),inactive: 3.94%
21,O=C(CSc1nc(=O)[nH]c2c1CCCC2)Nc1ccc(Cl)c(Cl)c1,inactive: -18.2%
22,Cc1ccc(-n2nc(C(=O)Nc3ccc(F)cc3Cl)c(=O)n(C)c2=O)cc1,inactive: -2.64%
23,CCN(CC)S(=O)(=O)c1ccc(NC(=O)c2cc3ccc4cccnc4c3[nH]2)cc1,inactive: -28.3%
